B1: PhoQ; a variant is named by its letters at X, in order, P23837 (parent)
chain: MKKLLRLFFPLSLRVRFLLATAAVVLVLSLAYGMVALIGYSVSFDKTTFRLLRGESNLFYTLAKWENNKLHVELPENIDKQSPTMTLIYDENGQLLWAQRDVPWLMKMIQPDWLKSNGFHEIEADVNDTSLLLSGDHSIQQQLQEVREDDDDAEMTHSVAVNVYPATSRMPKLTIVVVDTIPVELKSSYMVWSWFIYVLSANLLLVIPLLWVAAWWSLRPIEALAKEVRELEEHNRELLNPATTRELTSLVRNLNRLLKSERERYDKYRTTLTDLTHSLKTPLXXLQXXLRSLRSEKMSVSDAEPVMLEQISRISQQIGYYLHRASMRGGTLLSRELHPVAPLLDNLTSALNKVYQRKGVNISLDISPEISFVGEQNDFVEVMGNVLDNACKYCLEFVEISARQTDEHLYIVVEDDGPGIPLSKREVIFDRGQRVDTLRPGQGVGLAVAREITEQYEGKIVAGESMLGGARMEVIFGRQHSAPKDE

Some of the results follow.

Variants of B1 are the subject of this test. Kind of test: enrichment ratio after two sorts for PhoP signalling (ratio (wild type AVST 3.29)); higher = more functional. Conditions: with PhoP (E. coli).
As to MDGQ, the enrichment ratio is at most 0.25.

Turning to VAGA, the enrichment ratio was at most 0.25.

As to WQVV, the enrichment ratio is at most 0.25.

As for QTSQ, the enrichment ratio was determined as 1.39.

Consider AHGS, for which the enrichment ratio is at most 0.25.

In the case of ILTF, the enrichment ratio amounted to 0.323.

As for MAWW, the enrichment ratio is at most 0.25.

Take MTPL: the enrichment ratio was determined as 0.429.

For EKWD, the enrichment ratio was at most 0.25.

Consider LRDY, for which the enrichment ratio was at most 0.25.

Regarding KKII, the enrichment ratio is at most 0.25.

LPRG: the enrichment ratio is at most 0.25.

For the variant MRFW, the enrichment ratio is at most 0.25.

In the case of VTVH, the enrichment ratio was at most 0.25.

DVAR: the enrichment ratio is at most 0.25.

With IDKN, the enrichment ratio was at most 0.25.

Regarding FMHA, the enrichment ratio was at most 0.25.

As for YRDK, the enrichment ratio is at most 0.25.

For GNKI, the enrichment ratio is at most 0.25.

In the case of GMWS, the enrichment ratio was at most 0.25.

As for RIKC, the enrichment ratio is at most 0.25.

Regarding ISER, the enrichment ratio is at most 0.25.

Take DLYS: the enrichment ratio is at most 0.25.

In the case of KKCC, the enrichment ratio was at most 0.25.

Take TFNG: the enrichment ratio stood at 1.19.

SEST: the enrichment ratio worked out at 18.4.

Take RQMN: the enrichment ratio is at most 0.25.

YWHV: the enrichment ratio is at most 0.25.

With EHCM, the enrichment ratio is at most 0.25.

On to YKLQ, for which the enrichment ratio was at most 0.25.

QRAS: the enrichment ratio is at most 0.25.

Take AERV: the enrichment ratio was at most 0.25.

As for DVPE, the enrichment ratio was at most 0.25.

Regarding RWDW, the enrichment ratio was at most 0.25.

As for EWPF, the enrichment ratio was at most 0.25.

PRPE: the enrichment ratio was at most 0.25.

For NKLT, the enrichment ratio is at most 0.25.

Regarding AIGW, the enrichment ratio turned out to be 11.4.

With VQYY, the enrichment ratio is at most 0.25.

For DMGL, the enrichment ratio is at most 0.25.

With NLTY, the enrichment ratio was at most 0.25.

Regarding EPYN, the enrichment ratio was at most 0.25.

As for MMNK, the enrichment ratio is at most 0.25.

Turning to WDAC, the enrichment ratio was at most 0.25.

For the variant AICC, the enrichment ratio came to 5.26.

Consider LGVP, for which the enrichment ratio is at most 0.25.

As to YSFY, the enrichment ratio was at most 0.25.

Take QHVA: the enrichment ratio is at most 0.25.

In the case of DKRQ, the enrichment ratio is at most 0.25.

For PCRI, the enrichment ratio was at most 0.25.

In the case of SGSP, the enrichment ratio was at most 0.25.

In the case of TVNA, the enrichment ratio is 2.27.

For the variant DLHY, the enrichment ratio is at most 0.25.

Regarding QAKS, the enrichment ratio was at most 0.25.

Regarding EVHY, the enrichment ratio was at most 0.25.

As to QRHF, the enrichment ratio is at most 0.25.

On to LGCD, for which the enrichment ratio is at most 0.25.

Regarding MDAF, the enrichment ratio is at most 0.25.

Regarding YGTY, the enrichment ratio was at most 0.25.

In the case of DSQG, the enrichment ratio is at most 0.25.

Regarding PAGY, the enrichment ratio is at most 0.25.

As to TAGF, the enrichment ratio is 13.2.

PVPS: the enrichment ratio is at most 0.25.

With TWMT, the enrichment ratio was at most 0.25.

As to RLVQ, the enrichment ratio is at most 0.25.

For the variant GAKG, the enrichment ratio is at most 0.25.

As for YMPP, the enrichment ratio was at most 0.25.

In the case of AHCW, the enrichment ratio was at most 0.25.

In the case of PMSA, the enrichment ratio was at most 0.25.

For SSAA, the enrichment ratio was 10.8.

Take KSGA: the enrichment ratio was at most 0.25.

On to YAVL, for which the enrichment ratio is at most 0.25.

On to HQPP, for which the enrichment ratio was at most 0.25.

For the variant TNLE, the enrichment ratio came to 0.806.

GTVS: the enrichment ratio was at most 0.25.

With FAAT, the enrichment ratio is at most 0.25.

On to HYMV, for which the enrichment ratio was 0.57.

Consider YIYY, for which the enrichment ratio is at most 0.25.

For the variant SDHK, the enrichment ratio was at most 0.25.

Regarding HCPW, the enrichment ratio is at most 0.25.

As for PPIF, the enrichment ratio is at most 0.25.

Regarding YICS, the enrichment ratio is 0.338.

For NPIP, the enrichment ratio was at most 0.25.

On to GAAN, for which the enrichment ratio is at most 0.25.

For LSEH, the enrichment ratio is at most 0.25.

On to NFDW, for which the enrichment ratio is at most 0.25.

Consider KRKW, for which the enrichment ratio was at most 0.25.

Consider KNMC, for which the enrichment ratio is at most 0.25.

In the case of LANS, the enrichment ratio was at most 0.25.

Regarding VMWS, the enrichment ratio is at most 0.25.

As for ANFW, the enrichment ratio is at most 0.25.

As for GEYV, the enrichment ratio was at most 0.25.

Regarding QNSD, the enrichment ratio is at most 0.25.

On to APWM, for which the enrichment ratio was at most 0.25.

In the case of WALP, the enrichment ratio is at most 0.25.

Consider GDQM, for which the enrichment ratio was at most 0.25.

As to FQTE, the enrichment ratio was at most 0.25.

In the case of TRYG, the enrichment ratio was at most 0.25.

With IDTR, the enrichment ratio was at most 0.25.

On to GYHT, for which the enrichment ratio was at most 0.25.

For INFQ, the enrichment ratio is at most 0.25.

As for EGGR, the enrichment ratio is at most 0.25.

For the variant LMMD, the enrichment ratio was at most 0.25.

With FPTD, the enrichment ratio is at most 0.25.

Take YCKG: the enrichment ratio is at most 0.25.

Turning to WNHL, the enrichment ratio is at most 0.25.

For QQVS, the enrichment ratio is at most 0.25.

Regarding AQHQ, the enrichment ratio worked out at 7.51.

Consider HKAE, for which the enrichment ratio was at most 0.25.

Regarding NLIY, the enrichment ratio was at most 0.25.

In the case of PRRV, the enrichment ratio is at most 0.25.

For the variant RSVA, the enrichment ratio was at most 0.25.

Regarding FETF, the enrichment ratio is at most 0.25.

Regarding ASIL, the enrichment ratio stood at 19.5.

On to VTYY, for which the enrichment ratio is at most 0.25.

With NTPN, the enrichment ratio was at most 0.25.

Consider TNTK, for which the enrichment ratio was at most 0.25.

On to MYVI, for which the enrichment ratio was at most 0.25.

KFAI: the enrichment ratio was at most 0.25.

Take ANRP: the enrichment ratio was at most 0.25.

For the variant FNRD, the enrichment ratio was at most 0.25.

With RLVC, the enrichment ratio is at most 0.25.

Regarding FQSA, the enrichment ratio is at most 0.25.

As to YGSF, the enrichment ratio was at most 0.25.

Consider SSHE, for which the enrichment ratio was at most 0.25.

With KVSA, the enrichment ratio is at most 0.25.

As for WENA, the enrichment ratio is at most 0.25.

IKVS: the enrichment ratio was at most 0.25.

As for HMHV, the enrichment ratio is at most 0.25.

In the case of VDMC, the enrichment ratio is at most 0.25.

For the variant NAMW, the enrichment ratio is at most 0.25.

As to LQTW, the enrichment ratio was at most 0.25.

On to KPNK, for which the enrichment ratio is at most 0.25.

Turning to EMRK, the enrichment ratio was at most 0.25.

As to ENID, the enrichment ratio is at most 0.25.

As to LNRD, the enrichment ratio was 0.657.

Regarding HNWL, the enrichment ratio is 0.887.

For the variant NKGG, the enrichment ratio is at most 0.25.

Take PYSI: the enrichment ratio is at most 0.25.

In the case of HEWL, the enrichment ratio was at most 0.25.

Consider SCVL, for which the enrichment ratio came to 1.96.

As for SSKF, the enrichment ratio is at most 0.25.

On to VDLH, for which the enrichment ratio is at most 0.25.

Take HNYA: the enrichment ratio is at most 0.25.

Take GHCS: the enrichment ratio is at most 0.25.

On to YKHE, for which the enrichment ratio is at most 0.25.

On to KSLL, for which the enrichment ratio was at most 0.25.

As for DNAN, the enrichment ratio is at most 0.25.

Consider HCCH, for which the enrichment ratio was at most 0.25.

TSFI: the enrichment ratio is 1.45.

For ISIH, the enrichment ratio came to 0.269.

Turning to SESN, the enrichment ratio was determined as 7.92.

For VDRE, the enrichment ratio was at most 0.25.

The record behind these values is a collection of fitness landscapes (doi:10.1126/science.1257360).
